± gives the standard deviation of the averaged measurements. The list shows a part of the results.

In this assay the test system is PfAP2-LT AP2 domain (GST-tagged). The experiment in a line: gcPBM binding intensity (ln(normalized median fluorescence intensity)); higher = stronger DNA binding. The method, boiled down: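 An Agilent 4 × 180k array carrying primer-extended double-stranded 36-bp intergenic genomic probes and negative controls received GST-tagged P. falciparum DNA-binding domains expressed in E. coli, about 25 μg on average, for 1 h. The binding buffer contained 1× PBS, 1% milk, 0.2 mg/ml BSA, 0.5% salmon testes DNA and 0.03% Triton X-100. Binding intensity is the top Masliner-normalised natural-log median intensity across replicate spots of either probe orientation, read after Alexa488 anti-GST antibody staining and a 488 nm scan.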
As to “AAAAATTATATACATCATAGAATTAACATTTTAAAT [GTGCAC_negctrl_site369]”, the “gcPBM binding intensity (ln)” value worked out at 8.53 ± 0.47.

With “AGAAAAAGGAGAAAAAGTACAAAACGGAGTAGTATT [XGTACX_site3858]”, the “gcPBM binding intensity (ln)” value came to 9.2 ± 0.5.

Take “GTAGCAATAAACATATGTACATATATATATTTTTTC [XGTACX_site5814]”: the “gcPBM binding intensity (ln)” value came to 8.87 ± 0.42.

Consider “AAATCAACGATCTATACATGCATATAATATATACAT [TGCATGCA_site25]”, for which the “gcPBM binding intensity (ln)” value worked out at 8.94 ± 0.36.

In the case of “TAATAATACCCTTGCTGTACCAAATAAAGTTGAATA [XGTACX_site6922]”, the “gcPBM binding intensity (ln)” value came to 8.56 ± 0.36.

With “ACAAACAAAGAAAGAACACACATACACAATATACCT [CACACA_site5566]”, the “gcPBM binding intensity (ln)” value was found to be 9.54 ± 0.39.

As to “ATATTTAAATAATATTCACACACAAAATTATATTTT [CACACA_site7955]”, the “gcPBM binding intensity (ln)” value came to 9.04 ± 0.52.

“CATATAAAAATATATGCACACAAATAAAAAATTATA [CACACA_site9210]”: the “gcPBM binding intensity (ln)” value came to 8.97 ± 0.47.

“ATTTCTCAATCGTAATGTACAAAAAAAAGGGAAAAG [XGTACX_site2781]”: the “gcPBM binding intensity (ln)” value is 8.7 ± 0.45.

Turning to “TATGAGGAAACGTGGTGTACTTTTTTTTAATAAAAA [XGTACX_site1351]”, the “gcPBM binding intensity (ln)” value amounted to 8.31 ± 0.58.

As for “ATAAATATAATAATCATACACACCAAAGAGAATATT [CACACA_site1888]”, the “gcPBM binding intensity (ln)” value was determined as 9.08 ± 0.38.

In the case of “AAAGTTATTATGCAATAATTATGATAATTAATATAT [TGCATGCA_negctrl_site316]”, the “gcPBM binding intensity (ln)” value came to 8.64 ± 0.45.

With “ATGACTTACATATATAGTACTTTGTTTTGGAGTTGC [XGTACX_site94]”, the “gcPBM binding intensity (ln)” value is 8.93 ± 0.42.

On to TAATAAAATATGTACGTGCACATAATTATACTAAAA, for which the “gcPBM binding intensity (ln)” value worked out at 8.96 ± 0.43.

Turning to “TGATACTTTTTTTGTAGTACTCCTAAAATTATAAAA [XGTACX_site4340]”, the “gcPBM binding intensity (ln)” value was 8.34 ± 0.4.

As for “TTTTTTTTATTTTAATGTACATTTTTTATTTGTTAT [XGTACX_site7189]”, the “gcPBM binding intensity (ln)” value was found to be 8.93 ± 0.62.

With “ATATATATATTATTTCGTACATAATTATTTGCCTTA [XGTACX_site350]”, the “gcPBM binding intensity (ln)” value is 8.78 ± 0.35.

On to “AAAAAAAAAAAAAATTGTACAAAAAAAATAAATAAA [XGTACX_site6816]”, for which the “gcPBM binding intensity (ln)” value came out at 8.62 ± 0.81.

Take “AAAAAAAAAAAAGAAACACACATATTTATATTTATA [CACACA_site6213]”: the “gcPBM binding intensity (ln)” value was determined as 8.59 ± 0.48.

For “TTATTTTAATAACCTACACACATTTTGTATATTTTA [CACACA_site4000]”, the “gcPBM binding intensity (ln)” value worked out at 8.9 ± 0.44.

For “AAATGATGGAAAAAATAAATTTTTGTACAAAAATTA [CACACA_negctrl_site814]”, the “gcPBM binding intensity (ln)” value was 8.51 ± 0.42.

Turning to “TTATAAATATTCTTGGGTACTTAAGATGATATGTAA [XGTACX_site5496]”, the “gcPBM binding intensity (ln)” value came to 8.44 ± 0.39.

With “AAAAAAAAAAAGAAAGCACACAATACATATGTATAA [CACACA_site1137]”, the “gcPBM binding intensity (ln)” value was found to be 8.91 ± 0.49.

As for “ATATATATCAGACACACACACATGTTTTAAAACTAT [CACACA_site77]”, the “gcPBM binding intensity (ln)” value was 9.49 ± 0.34.

With “TAAATTTTTAAATACACACATACACCCATACAGACA [CACACA_site548]”, the “gcPBM binding intensity (ln)” value amounted to 9.28 ± 0.34.

Source of the values: the supplement of paper PMC11417369.
